Measured values reported in PubChem BioAssay AID1159614 (National Center for Advancing Translational Sciences (NCATS), 2016).
Among all 45,000 compounds or so, about 65 (0.1%) were called active. Calls follow the shape of the dose curve; as a rule, active = well fitted activation curve with a large enough effect; inconclusive = small, poorly fitted or top-dose-only effect; inactive = no such curve, though single readings can be large or run the other way. The list shows a part of the results.

Target: Galactocerebrosidase (Homo sapiens) (UniProt P54803)
Assay: A Novel Cell-Based Assay to Identify Small Molecules for B -Galactocerebrosidase; also: 0% is about no effect; nearly all actives have a fitted effect of over 65% in size
Settings: 145M-Twi-hGALC-G270D cells (Twitcher mouse brain line with human GALC G270D), HMU-beta-Gal fluorescence, 48 h; series mostly up to 57.5 µM; activation: at the top concentration
Outline: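 Mutant human GALC (G270D), stably expressed in a Twitcher mouse brain cell line lacking endogenous GALC, is measured in live-treated cells via 6-hexadecanoylamino-4-methylumbelliferyl-β-galactoside hydrolysis (0.1 mM final, pH 5.2) with fluorescent detection.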

UniProt P54803, sequence (P54803 whole entry, looked up): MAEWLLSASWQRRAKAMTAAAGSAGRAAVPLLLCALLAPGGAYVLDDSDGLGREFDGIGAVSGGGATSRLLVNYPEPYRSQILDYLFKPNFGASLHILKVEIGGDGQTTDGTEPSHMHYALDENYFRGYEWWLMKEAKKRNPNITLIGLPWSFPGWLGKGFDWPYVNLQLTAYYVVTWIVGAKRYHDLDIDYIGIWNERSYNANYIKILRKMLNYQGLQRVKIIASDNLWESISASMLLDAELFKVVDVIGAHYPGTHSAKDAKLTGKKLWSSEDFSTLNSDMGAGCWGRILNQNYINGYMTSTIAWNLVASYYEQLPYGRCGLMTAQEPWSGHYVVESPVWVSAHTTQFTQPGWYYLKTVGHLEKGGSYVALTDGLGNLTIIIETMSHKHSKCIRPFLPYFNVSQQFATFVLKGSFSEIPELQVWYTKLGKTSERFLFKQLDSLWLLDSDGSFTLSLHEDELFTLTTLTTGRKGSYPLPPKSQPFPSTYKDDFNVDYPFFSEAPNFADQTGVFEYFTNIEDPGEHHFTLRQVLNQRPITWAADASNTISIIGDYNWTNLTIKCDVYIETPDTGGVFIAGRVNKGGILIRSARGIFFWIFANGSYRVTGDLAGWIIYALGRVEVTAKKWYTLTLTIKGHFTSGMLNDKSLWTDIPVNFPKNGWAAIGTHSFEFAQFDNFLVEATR

| Compound | activation |
| --- | --- |
| Cc1nn(CCCC(=O)Nc2ccccc2C(F)(F)F)c(=O)c2nn(-c3ccccc3)c(C)c12 | inactive: -8.28% |
| Cc1ccc(Cl)cc1N1CCN(C(=O)c2ccc3c(Cl)c4c(nc3c2)CCCC4)CC1 | inactive: -20.4% |
| O=C(Cn1c(=O)ccc2cc(S(=O)(=O)N3CCCC3)ccc21)Nc1ccccc1 | inactive: -20.7% |
| COc1cccc(-c2nc(CS(=O)(=O)CC(=O)N3CCN(c4ccccc4)CC3)c(C)o2)c1 | inactive: -11.8% |
| CCC(=O)N1c2ccccc2CC1C(=O)NCCCN1CCN(c2ccc(OC)cc2)CC1 (configuration not stated) | inactive: -18.9% |
| CCn1cc(C(=O)NCCC(C)C)c(=O)c2cc(S(=O)(=O)N(C)C3CCCCC3)ccc21 | inactive: -12.6% |
| CCCCOc1ccc(CNC(=O)c2cnc3sc(N4CCCC4)nn3c2=O)cc1 | inactive: -7.97% |
| Cc1c(Cl)cccc1NC(=O)C(=O)NCCc1csc2nc(-c3ccccc3F)nn12 | inactive: -22.5% |
| O=C(Cn1c(-c2cccs2)cc2cc(F)ccc21)NCCc1ccc(Cl)cc1 | inactive: -9.26% |
| O=S(=O)(Nc1ccc(O)c(Sc2nc3ccccc3s2)c1)c1cc(Cl)ccc1Cl | inactive: -32.2% |
| CC1CCCCN1c1cc2c(cc1F)c(=O)c(S(=O)(=O)c1ccccc1)cn2Cc1ccccc1 (configuration not stated) | inactive: -7.57% |
| COc1ccc(-c2nc(CNC(=O)Nc3ccccc3)c(C)o2)c(OC)c1 | inactive: -9.93% |
| CCN1CCN(CCCNC(=O)Cn2c(-c3cccs3)cc3cc(Cl)ccc32)CC1 | inactive: -6.75% |
| O=c1ccc(-c2ccccc2)nn1Cc1c(F)cccc1Cl | inactive: -8.05% |
| CCn1ccc2c(OCC(=O)Nc3ccc(OC)cc3OC)cccc2c1=O | inactive: 7.94% |
| CCc1ccc(NC(=O)C(=O)NCC(c2ccc3c(c2)OCO3)N2CCN(C)CC2)cc1 (configuration not stated) | inactive: -12.1% |
| COc1ccc(Nc2ncc(C(=O)Nc3cccc(Cl)c3)c3ccccc23)cc1 | inactive: -8.84% |
| Cc1ccc(OCC(=O)NCC2(N3CCN(C)CC3)CCCCC2)cc1 | inactive: -10.6% |
| Cc1ccc(C)c(NC(=O)c2cc(S(=O)(=O)NCc3ccccc3)ccc2F)c1 | inactive: -15.1% |
| CCN(CC)S(=O)(=O)c1ccc2c(c1)nc(CN(C)C(=O)Nc1ccc(C)c(Cl)c1)n2C | inactive: -15.7% |
| Cc1nc2c3cccnc3nn2c(C)c1CCC(=O)NCc1ccccc1 | inactive: -9.34% |

| Compound | activation |
| --- | --- |
| COc1ccccc1Nc1nc(C)nc(N)c1S(=O)(=O)c1ccccc1 | inactive: -7.41% |
| CC(C)CCNC(=O)c1cnc2sc(N3CCCCCC3)nn2c1=O | inactive: -9.35% |
| COc1ccc(-n2nc3c(N4CCC(C(=O)N5CCC(C)CC5)CC4)nnc(C)c3c2C)cc1 | inactive: -9.4% |
| Cc1ccc(O)c(NC(=O)c2cc(-c3ccc(F)cc3)no2)c1 | inactive: -4.86% |
| COc1ccc(CNC(=O)c2ccc(Cn3c(=O)c4cccn4c4cccnc43)cc2)c(OC)c1 | inactive: -2.98% |
| CCc1ccc(C2CC(=O)Nc3c2c(=O)n(C)c2ncnn32)cc1 (configuration not stated) | inactive: 15.2% |
| CC(C)n1nc(-c2cc3cc(O)ccc3[nH]2)c2c(N)ncnc21 | inactive: -18% |
| CC(C)Oc1ccc(CNC(=O)C2=Cc3ccccc3OC2)cc1 | inactive: -8.18% |
| COc1ccc(C(=O)c2cn(CC(=O)Nc3cc(C)ccc3C)c3nc(C)ccc3c2=O)cc1 | inactive: -13.1% |
| CCOCCCN(Cc1ccco1)C(=O)c1cc2c(s1)-c1c(C)cccc1OC2 | inactive: -9.2% |
| COc1ccc(OC)c(NC(=O)c2nc(S(=O)(=O)Cc3ccc(F)cc3)ncc2Cl)c1 | inactive: -14.8% |
| CCOC(=O)N[C@H](Cc1c[nH]c2ccccc12)C(=O)Nc1cccc(Cl)c1 | inactive: -9.37% |
| CCn1c(CN2CCN(C)CC2)nc2cc(NC(=O)c3ccc([N+](=O)[O-])cc3)ccc21 | inactive: -13.8% |
| NC(=O)C1CCN(c2csc3ccc(F)cc3c2=O)CC1 | inactive: -11.8% |
| COc1ccc(N2CCN(C(CNC(=O)c3ccc(OC)c(OC)c3)c3cccnc3)CC2)cc1 (configuration not stated) | inactive: -7.42% |
| Cc1ccc(NC(=O)CN(Cc2ccccc2)S(=O)(=O)c2ccc3nc(C)sc3c2)c(C)c1 | inactive: -17.3% |
| Cc1ccc(-c2nc(CSc3nnc(C)n4c3cc3occc34)c(C)o2)cc1 | inactive: -7.99% |
| CCCCSc1nnc2c(n1)OC(c1ccc(Br)s1)Nc1ccccc1-2 (configuration not stated) | inactive: -10.7% |
| COc1ccc2cc1Oc1cc3c(cc1OC)CC[N+](C)(C)[C@H]3Cc1ccc(cc1)Oc1c(OC)c(OC)cc3c1[C@@H](C2)[N+](C)(C)CC3 | inactive: -15.8% |
| O=S(=O)(NCCc1nnc2ccc(SCc3ccccc3Cl)nn12)c1ccccc1 | inactive: -3.01% |
| CCOc1ccc(-c2nc(-c3ccccc3)c(-c3ccccc3)[nH]2)cc1OCC | inactive: 3.52% |

| Compound | activation |
| --- | --- |
| COc1cc2nc(Nc3cccc(F)c3)nc(N)c2cc1OC | inactive: -8.24% |
| Cc1cccc2nc(-c3ccccn3)c(Nc3ccccc3)n12 | inactive: -13.3% |
| CC(C)Cn1cc(NC(=O)N2CCN(c3cccc(C(F)(F)F)c3)CC2)c2ccccc2c1=O | inactive: -22.6% |
| CCCCOC(=O)c1ccc(-n2nnc3c(sc4nc(C)cc(C)c43)c2=O)cc1 | inactive: -6.7% |
| CN(C)c1ccc(CNC(=O)CCCN2C(=O)c3cccnc3Oc3ccc(Cl)cc32)cc1 | inactive: -9.33% |
| N#Cc1ccccc1CSc1nnc(-c2ccc(Br)cc2)o1 | inactive: -7.11% |
| O=C1CSC2(C(=O)N(Cc3cccc(C(F)(F)F)c3)c3ccccc32)N1c1ccc(F)c(F)c1 (configuration not stated) | inactive: -22.3% |
| Cc1ccc(CNC(=O)Cn2ccn(-c3cccc(Cl)c3)c(=O)c2=O)cc1 | inactive: -7.87% |
| O=C(NCc1ccccc1Cl)c1nnc(Cc2cccc(F)c2)o1 | inactive: -9.26% |
| Cc1ccc2oc(-c3ccc(C)c(NC(=O)/C=C/c4ccco4)c3)nc2c1 | inactive: -4.02% |
| Cc1ccc2c(CC(=O)N(Cc3ccc(N(C)C)cc3)Cc3ccco3)coc2c1C | inactive: -7.52% |
| COc1cccc(-c2cc(C(F)(F)F)n3ncc(C(=O)OC(C)C)c3n2)c1 | inactive: -5.01% |
| NC(=O)N1c2ccccc2C=Cc2ccccc21 | inactive: -4.72% |
| Cc1ccc(-c2noc(CNC(=O)c3ccc(C)c(Cl)c3)n2)cc1 | inactive: -8.65% |
| CCc1ccc(OCC(=O)N(Cc2ccc(C(C)C)cc2)C2CCS(=O)(=O)C2)cc1 (configuration not stated) | inactive: -8.08% |
| CCN(CC)C(=O)C1=C(C)Nc2nc3ccccc3n2C1c1cccc(OC)c1 (configuration not stated) | inactive: -4.33% |
| O=C(Nc1ccccc1C(F)(F)F)c1ccc(F)c(S(=O)(=O)N2CCc3ccccc3C2)c1 | inactive: -18.9% |
| Cc1ccc(-n2c(C)cc(/C=C(\C#N)C(=O)Nc3ccc(C)c(C)c3)c2C)cc1 | inactive: 0.699% |
| Cc1c(Cl)cccc1NC(=O)C(=O)NCCc1csc(-c2ccc(C(F)(F)F)cc2)n1 | inactive: -19.2% |
| Cc1ccccc1Cn1c(CN2CCC(C(=O)NCc3ccc(Cl)cc3)CC2)cc2ccccc21 | inactive: -15.1% |
